# Measured values reported in PubChem BioAssay (NCI).
#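 Method: 48-hour compound exposure of cells in 96-well plates, five concentrations, linear interpolation of endpoints. GI50 is the concentration that inhibits growth by half. TGI marks complete inhibition of growth.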
# Tested on: NCI-H322M lung
# Assay: DTP human tumour cell line panel, 48 h
SMILES,TGI [µM],GI50 [µM]
CCN(CC)CCNC(=O)c1cccc2nc3ccccc3nc12,35.1,
Cc1c(Cl)cccc1NC(=O)c1sc2nc3c(cc2c1N)CCCCC3,> 50,2.4
Oc1cc(Br)cc2cc(Cl)cnc12,> 100,
O=C1C(=Cc2ccc(Cl)c(Cl)c2)C([O-])=C([P+](c2ccccc2)(c2ccccc2)c2ccccc2)C([O-])=C1[P+](c1ccccc1)(c1ccccc1)c1ccccc1,11.6,
CC(C)(C)[Si](C)(C)OCC1OC(n2cnc3c(=O)[nH]c(N)nc32)C(O[Si](C)(C)C(C)(C)C)C1O[Si](C)(C)C(C)(C)C (stereo not given),8.74,
CC(=O)N/C(=C\c1ccc(Cc2nc3c([nH]2)C(=O)c2ccccc2C3=O)cc1)c1nc2c([nH]1)C(=O)c1ccccc1C2=O,> 100,
O=c1oc2ccccc2c(O)c1C(C/C(CCN1CCCC1)=N\Nc1ccccc1)c1ccccc1 (stereo not given),> 100,
Cc1coc2c1C(OC(=O)C(C)C)C1(C)C(C)CCC(O)C1C2=O (stereo not given),> 100,
O=C(O)CCC(NC(=O)c1ccc(Nc2nc3cc(C(F)(F)F)ccc3nc2C(=O)O)cc1)C(=O)O (stereo not given),> 100,
C=C(C(=O)O[C@H]1C(=O)C2=C(C)CCC3C(=C)C(=O)O[C@@H]3C2[C@]1(C)O)C1CC[C@]2(C)CCCC(=C)[C@H]2C1 (stereo not given in full),29.7,
Cc1ccc(NC(=O)CSC(N)=O)cc1C,> 100,
O=C(CSc1nc2ccccc2c(=O)n1-c1ccccc1)N=Nc1c(O)[nH]c2ccc(F)cc12,4.82,
O=C(O)/C(=C\c1ccncc1)c1cccc2ccccc12,> 100,
Cn1cc(C2=C(N3CCOCC3)C(=O)NC2=O)c2ccccc21,> 25,> 25
Nc1c(C(=O)Nc2cccc(Cl)c2Cl)sc2nc3c(cc12)C(=O)CCC3,> 100,60.6
O=C(/C=C\c1ccccc1)N1CCc2ccccc2C1,> 100,
N=C(N)c1ccc(-c2ccc(-c3ccc(Cl)cc3Cl)s2)cc1,3.1,1.7
CC(C)(C)CC(C)(C)c1ccc(O)c(C[N+](C)(C)[O-])c1,> 100,
CCCCCCCCCCCCCCCC1=NC(C)(C)CN1C(C)C,2.9,1.54
Cn1cccc1/C=C/c1cc(Br)c(/C=C/c2cccn2C)cc1Br,> 100,
Cn1c(=O)c2/c(n(C)c1=O)=N\C=c1\c(=O)n(C)c(=O)n(C)\c1=N\C=2,> 100,
NC(=S)NN=C1CSSC1,38.7,2.68
CN(C)C(=O)Oc1c(-c2ccccc2)c(=O)n2c3ccccc3n3c(=O)n(C)c(=O)c1c23,> 100,
CC(=C/c1ccccc1)/C=C1/NC(=S)N(/C=C2\C(=O)Oc3ccccc3C2=O)C1=O,> 100,
CN(C)/N=N/c1nc[nH]c1C(N)=O,> 1000,115

SMILES,TGI [µM],GI50 [µM]
Cc1cc(I)cc(CN(C)CCCN2CCN(C)CC2)c1O,> 100,53.6
O=C(/C=C\c1cccc2ccccc12)c1cccc2ccccc12,13.2,
C=CC(C)(C)C(=C)C(=O)Nc1ccccc1I,> 100,
COC(=O)c1c(O)ccc2c1c1c(n2Cc2ccccc2)C(=O)c2ccccc2C1,> 100,
O=C(CCCCC(=O)N/N=C\c1ccccc1O)N/N=C\c1ccccc1O,32.8,2.3
C[C@@H](Nc1nc(Nc2ccc(F)c(Cl)c2)nc2ccccc12)C1CC1,18.3,5.24
Brc1cc2c(cc1Br)CN(c1ccccc1)C2,> 100,
CCN1CCC(O)(/C=C/c2ccc(C(C)C)cc2)C(C(=O)/C=C/c2ccc(C(C)C)cc2)C1 (stereo not given),13.9,
CCCCCCCCCCCCCCCCCC(=O)Nc1ccn(C2OC(CO)C(O)C2O)c(=O)n1 (stereo not given),> 100,
O=c1[nH]c(=S)c2cc3c(=S)[nH]c(=O)n(CCO)c3nc2n1CCO,> 100,
C[N+](C)(CCNC(=O)c1cccc2cc3ccccc3nc12)Cc1ccc([N+](=O)[O-])s1,> 25,
CN(C)CC/C(=N\Nc1ccc(Cl)cc1Cl)c1ccccc1,66.7,
CC(=O)OC1COC(Nc2nc(N)n(C)c(=O)c2N=O)C(OC(C)=O)C1OC(C)=O (stereo not given),> 10,
CC1(C)CC(N(C(=O)/C=C/c2ccc([N+](=O)[O-])o2)C2CCCCC2)CC(C)(C)N1,27.4,
COc1ccc(N2NC(c3ccccc3)(c3ccccc3)C(C)C2=O)cc1 (stereo not given),> 100,
CCC[CH2][Sn]1([CH2]CCC)[O]CC(C)[O]1 (stereo not given),12.5,3.37
CCN(CC)c1ccc(/C=C/C=C2\NC(=O)NC2=O)cc1,> 100,26.1
O=[N+]([O-])C(Cl)=C/C(=C(\Cl)SCc1ccccc1)[N+](=O)[O-],97.2,
C=CC1=C(C)C2=NC1=CC1=NC(=C(CC)/C1=C\O)C=C1N=C3C(=C1C)C(=O)[C@H](C(=O)OC)C3=C1NC(=C2)[C@@H](C)[C@@H]1CCC(=O)O,> 100,
CC(=O)c1nc2ccccc2n1CC(=O)c1cccc(Cl)c1,> 100,3.32
CCOC(=O)/C=C(\C(=O)OCC)n1ccc(=O)[nH]c1=O,98.2,
O=C1c2ccccc2C(=O)c2[nH]c(Cc3ccc(F)cc3)nc21,34.5,
Cc1ccc(C(=O)CC2=Nc3nnc(CCCCCCCc4nnc5n4C(=O)C(CC(=O)c4ccc(C)cc4)=N5)n3C2=O)cc1,> 100,
CCCC(=O)[O-].N.N.N.N.N.[Co+3].[O-][Cl+3]([O-])([O-])[O-],> 100,
Cc1cc(C(=O)c2ccccc2)c(C)c2c1[nH]c1ccc(Cl)cc12,27,0.188

SMILES,TGI [µM],GI50 [µM]
CCc1cccc(C)c1NC(=O)CC1C(=O)Nc2ccccc2S1(=O)=O (stereo not given),50.5,
O=c1ccc2ccc(O)cc2o1,> 100,
NCCCNCCCCN1CC1,9.41,
COc1c(B(O)O)cc(F)cc1-c1nc2ccc3[nH]ncc3c2c2c1CCCC2,8.96,2.15
[N-]=[N+]=Nc1c([N+](=O)[O-])c(=O)n2c3c(cccc13)CCC2,> 60.7,
CCSc1ccc(C2C(Br)C(=O)N2c2cc(OC)c(OC)c(OC)c2)cc1 (stereo not given),> 100,7.38
COc1cccc2c1n([O-])c1cccc(OC)c1[n+]2=O,> 100,31.6
CC(=O)c1cc(O)c2ccccc2c1O,> 100,42.5
COc1ccc(N2C(=O)C3c4[nH]c5ccccc5c4C4CCCCC4C3C2=O)cc1 (stereo not given),79.5,
O=NN(CCCl)C(=O)NC1CCC(CC2CCC(NC(=O)N(CCCl)N=O)CC2)CC1 (stereo not given),> 31.6,
O=C(c1ccccc1)c1c(C(F)(F)F)n([O-])c2ccc(C(F)(F)F)cc2[n+]1=O,3.19,1.72
Fc1cc(-c2cc(-c3ccc4c(c3)OCO4)n[nH]2)c(Cl)cc1Cl,5.01,
CCN(CC)CC(=N)N(CC)c1ccccc1,> 100,
Brc1ccc2c(-c3csc(-c4c[nH]c5ccccc45)n3)c[nH]c2c1,38.3,
COc1cc(-c2csc(NC(=O)Nc3cc(Cl)cc(Cl)c3)n2)cc(OC)c1OC,3.77,1.73
Cc1ccc(CCC(=O)C(=O)O)s1,> 100,
O=[N+]([O-])c1cccc2nccc(NCCCO)c12,35,
O=C(CCC(=O)C1CCC/C1=N/O)Nc1ccc(Cl)cc1 (stereo not given),> 100,
CCOC(=O)C(NC(=O)OC(C)(C)C)C(=O)OCC,> 100,
O=C(CCc1ccc(O)cc1)N/N=C/c1cc(Br)ccc1O,58.5,2.91
O=c1oc2c(C(F)(F)F)cccc2cc1-c1csc(Nc2ccc(OCCF)cc2)n1,> 100,0.172
COc1cc(CS(=O)c2ccc(O)cc2)cc(OC)c1OC (stereo not given),> 100,
C/C(=N\NC(=S)N(C)C)c1ccccn1,13.7,
